Here are results for 79 sequences from the supplement of paper PMC10126150.

For the series, the system named is ATP. The series can be described thus: switch fluorescence ratio, 500 uM ATP over buffer (Cy3 cluster intensity, sum of 5 cycles each) (fold (ratio)); higher = stronger signal-on switching upon ATP binding; sequences stand for … in TCGTCGGCAGCGTCAGATGTGTATAAGAGACAGTTTTTTTTTTTTTTTTTTTTTTTTT…TC. As to conditions: aptamer strand: ATP DNA aptamer (quencher-CACCTGGGGGAGTATTGCGGAGGAAGG + anchor), 100 nM annealed; ATP concentration: 500 uM; one replicate. In outline:
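Imaging in selection buffer was followed by imaging after 15 min with 500 uM ATP at 22 °C, for Cy3-labelled switching-strand clusters annealed to 100 nM quencher-labelled ATP aptamer on a modified Illumina MiSeq flow-cell. Five of these buffer/ATP cycles ran, separated by NaOH stripping and re-annealing. The fluorescence ratio per cluster is summed target-cycle over summed buffer-cycle Cy3 intensity, averaged per switch-domain sequence; clusters outside 100-1000 RFU were removed.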

Sequences with one replicate were seen in a single cluster, so their values are uncertain.
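Further: ATP exposure 15 min at 22 °C before imaging.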

Take GAGAGGAGTG: the switch fluorescence ratio is 0.998. The value for AAGGGCTAAA was 0.953; that for TCTCTCGGTC was 1.11. The value for ATTATACATT was 0.962; that for TCTATTTAGG was 1.01. TTCGTAGGAA: the switch fluorescence ratio worked out at 1.1. The value for CCGCAGGCAT was 2.88; that for TTGTGTCAGG was 1.04; that for TCTTACATT was 0.985. On to GTAGATTGGC, for which the switch fluorescence ratio is 1.08. The value for TAAGTCTCCA was 1.02; that for CTGCCCTTGG was 1.11. For the sequence ATCGGTGCTA, the switch fluorescence ratio came to 0.93.

Regarding AGAAGCATC, the switch fluorescence ratio amounted to 0.989. The value for GAGTATCGCG was 0.962; that for GCAGGCAGTT was 0.975; that for AAGACAGTCT was 0.996.

Consider GCTTGAGACG, for which the switch fluorescence ratio is 1.09.

As for GAGGTTGATA, the switch fluorescence ratio came to 1.02. For CAATACCGC, the switch fluorescence ratio turned out to be 1.21. The value for CTCGTTTGCG was 0.968; that for CAATACCAAT was 1.04; that for CTACGTCATA was 2.31. Turning to AAGCTCGTG, the switch fluorescence ratio turned out to be 0.985.

Take TGGAGACCGA: the switch fluorescence ratio amounted to 1.01. Under ATCTAGTACT stands 1.03; under GGAGACGCCT, 0.971. CACTGTAGCT: the switch fluorescence ratio was 1.2. Take GATTATCAGC: the switch fluorescence ratio is 0.949. TTTGAATGAA: the switch fluorescence ratio came to 1. TGTTAAAGTA: the switch fluorescence ratio turned out to be 0.958. The value for ACTCGAAT was 1.04; that for TATAAAATA was 0.962; that for ATCATGCACT was 1.08. In the case of GCGAGATAAG, the switch fluorescence ratio turned out to be 0.99. The value for TGCACGGTTC was 0.986. On to AATTGAGCGA, for which the switch fluorescence ratio was 1.09. TTTAGACAG: the switch fluorescence ratio is 1. ACCCTTTGGG: the switch fluorescence ratio worked out at 1.01. Under GCGGGCCAAA stands 1.24; under GGAACTAGAG, 0.995. The value for GAAAAATGAA was 0.991.

Turning to TTATTACCG, the switch fluorescence ratio was 1.03.

As to ACTAACATCA, the switch fluorescence ratio came to 1.13.

As for GTACAAGCAC, the switch fluorescence ratio was found to be 1.28.

As for TAAAACACTA, the switch fluorescence ratio stood at 1.05. In the case of AGTAGGATAG, the switch fluorescence ratio came to 0.987. With GGGATTGACG, the switch fluorescence ratio is 1.02. For the sequence CCCCGGCTTT, the switch fluorescence ratio stood at 1.11. The value for AGACATGAGG was 1. Consider AGGGTGTTTA, for which the switch fluorescence ratio was 0.989. GTATTGTTAG: the switch fluorescence ratio amounted to 0.954. The value for AGGGCTATGA was 0.975. Under AAGTATTCCT stands 1.01. The value for TCGCAGCCAT was 2.4; that for AACGTCAAA was 1.07; that for TACAATGTTA was 1.03. For GTTACTTCGG, the switch fluorescence ratio came to 1.06. As for GTAATCTACA, the switch fluorescence ratio is 1.04. Under CGCATGCAGT stands 1.05; under GCTCACGATG, 1.03; under TTTCGCGTA, 1.04. For GCTTAAGTAC, the switch fluorescence ratio was found to be 2.07. The value for CGGGGTACGA was 1.05; that for GGGACGGATC was 1.02; that for GCCCCGGTTT was 0.994.

Turning to GCTAATGAA, the switch fluorescence ratio was 0.992. Take AAAGCTCAGT: the switch fluorescence ratio was 1.06. The value for TCGTCAGAGT was 0.957; that for ACCGACAACT was 1.28. For the sequence AAATCCACTG, the switch fluorescence ratio worked out at 1.03. The value for TTAGGTCGAT was 1.01. Consider TAGCTCGCGT, for which the switch fluorescence ratio was determined as 0.984.

On to CATAGAAGGT, for which the switch fluorescence ratio came to 1.01.

Take GGGATATA: the switch fluorescence ratio is 1.01. CTCGCTGACA: the switch fluorescence ratio amounted to 1.11. Under TCCAGTACAC stands 1.09.

In the case of GATCGGCCCC, the switch fluorescence ratio stood at 1. Under ACTCGGTCCA stands 1.02.
